Changes are numbered by the printed parent chain.

B1: C382L13F3L10M2 (Fc fusion)
chain: HSQGTFTSDYSKYLDSQAAQDFVQWLMNGGPSSGAPPPSGGGGSGGGGSGGGGSA[human IgG1 Fc with changes omitted here]GGGGAGGGGAGGGGAHPIPDSSPLLQFGGQVRQRYLYTDDAQQTEAHLEIREDGTVGGAADQSPESLLQLKALKPGVIQILGVKTSRFLCQRPDGALYGSLHFDPEACSFRERLLEDGYNVYQSEAHGLPLHCPGNKSPHRDPAPRGPCRFLPLPGLPPALPEPPGILAPQPPDVGSSDPLSMVGGSQGRSPSYES
B2: C382L13F9L10M2 (Fc fusion)
chain: HSQGTFTSDYSKYLDSQAAQDFVQWLMNGGPSSGAPPPSGGGGSGGGGSGGGGSA[human IgG4 Fc with S228P F234A L235A (EU numbers) omitted here]GGGGAGGGGAGGGGAHPIPDSSPLLQFGGQVRQRYLYTDDAQQTEAHLEIREDGTVGGAADQSPESLLQLKALKPGVIQILGVKTSRFLCQRPDGALYGSLHFDPEACSFRERLLEDGYNVYQSEAHGLPLHCPGNKSPHRDPAPRGPCRFLPLPGLPPALPEPPGILAPQPPDVGSSDPLSMVGGSQGRSPSYES
B3: C364L10F4 (Fc fusion)
chain: HSQGTFTSDYSKYLDGQAAQDFVQWLMNGGPSSGAPPPSGGGGAGGGGAGGGGA[human IgG1 Fc with changes omitted here]
B4: C187L9F4 (Fc fusion)
chain: HSQGTFTSDYSKYLDSQRAQDFVQWLMNTGPSSGAPPPSGGGGSGGGGSGGGGS[human IgG1 Fc with changes omitted here]
B5: C352L13F4 (Fc fusion)
chain: HSQGTFTSDYSKYLDEQAAQDFVQWLMNGPSSGAPPPSGGGGSGGGGSGGGGSA[human IgG1 Fc with changes omitted here]
B6: C611L11F4 (Fc fusion)
chain: HSQGTFTSDYSKYLDERAAQDFVQWLLDGPSSGAPPPSGGSGGGGSGGGGSGGA[human IgG1 Fc with changes omitted here]
B7: C209L13F8 (Fc fusion)
chain: HSQGTFTSDYSKYLDSEAAQDFVQWLMNGGPSSGAPPPSGGGGSGGGGSGGGGSA[human IgG4 Fc with S228P N297A (EU numbers) omitted here]
B8: C228L13F4 (SEQ ID NO. 120) (Fc fusion)
chain: HSQGTFTSDYSKYLDEERAQDFVQWLMNTGPSSGAPPPSGGGGSGGGGSGGGGSA[human IgG1 Fc with changes omitted here]
B9: C228L13F4 (SEQ ID NO. 124) (Fc fusion)
chain: HSQGTFTSDYSKYLDEERAQDFVQWLMNTGPSSGAPPPSGGGGSGGGGSGGGGSA[human IgG1 Fc with changes omitted here]
B10: C289L12F4 (Fc fusion)
chain: HSQGTFTSDYSKYLDGEAAQDFVQWLMNGGPSSGAPPPSGGGGAGGGGAGGGGAA[human IgG1 Fc with changes omitted here]
B11: C623L9F3 (Fc fusion)
chain: HSQGTFTSDLSKQMDSREAQDFIEWLKNTGPSSGAPPPSGGGGSGGGGSGGGGS[human IgG1 Fc with changes omitted here]
B12: C618L12F4 (Fc fusion)
chain: HSQGTFTSDLSKQMDSRAAQDFIEWLKNGGPSSGAPPPSGGGGAGGGGAGGGGAA[human IgG1 Fc with changes omitted here]
B13: C508L7F4 (Fc fusion)
chain: HSQGTFTSDYSKYLEEEAVRLFIQWLMNGGPSSGAPPPSGGSGGGSGGGGS[human IgG1 Fc with changes omitted here]
B14: C240L13F8 (Fc fusion)
chain: B7 chain with S16E, E17R
B15: C368L13F8 (Fc fusion)
chain: B7 chain with S16E, E17Q, G29T
B16: C392L13F8 (Fc fusion)
chain: B7 chain with S16E, G29T
B17: C225L13F8 (Fc fusion)
chain: B7 chain with S16E, E17R, G29T
B18: C462L13F8 (Fc fusion)
chain: B7 chain with S16E
B19: C276L13F8 (Fc fusion)
chain: B7 chain with E17R
B20: C364L13F8 (Fc fusion)
chain: B7 chain with S16G, E17Q
B21: C495L13F8 (Fc fusion)
chain: B7 chain with S16E, E17Q
B22: C232L13F8 (Fc fusion)
chain: B7 chain with E17Q, G29T
B23: C382L13F8 (Fc fusion)
chain: B7 chain with E17Q

In the first test the target is Glucagon receptor. Description: cell-based or functional assay.
Regarding B1, the “GCGR agonist activity EC50 (luciferase reporter)” value (shortened to “GCGR agonist activity EC50”) is 1.02 nM.
In the case of B2, the “GCGR agonist activity EC50” value is 1.13 nM.

The target of the next test is FGFR/β-Klotho receptor complex. The test is described as follows: cell-based or functional assay.
On to B1, for which the “FGF21 activity EC50 (luciferase reporter)” value was found to be 0.61 nM.
The same measure, in the same setting: the result for B2 reads 0.83 nM.

A further test deals with T1, human GLP-1 receptor (human, UniProt P43220). Description: cell-based or functional assay.
As for B1, the “GLP-1R agonist activity EC50 (luciferase reporter)” value (from here on “GLP-1R agonist activity EC50”) came to 1.14 nM.
On the same count and under the same terms, as for B2, the figure is 1.23 nM.

In a further test the target is Glucagon receptor. The test is described as follows: cell-based or functional assay. This is another data set of the same source.
As to B3, the “GCGR agonist activity EC50” value turned out to be 1.48 nM.
Same read-out and setting: the result for B4 reads 1.2 nM; that for B5, 1.23 nM.
Still for that read-out and setting: as for B6, the figure is 1.19 nM.
Still for that read-out and setting: as for B7, the figure is 1.63 nM.
On to B8, for which the “GCGR agonist activity EC50” value was found to be 1.52 nM.
The same measure, in the same setting: the result for B9 reads 1.51 nM; that for B10, 2.01 nM; that for B11, 1.17 nM.
Same read-out and setting: the result for B12 reads 1.27 nM.
For the molecule B13, the “GCGR agonist activity EC50” value turned out to be 1.45 nM.

Another test has as its target T1, human GLP-1 receptor. The test is described as follows: cell-based or functional assay. This is another data set of the same source.
On to B3, for which the “GLP-1R agonist activity EC50” value was found to be 1.65 nM.
Consider B4, for which the “GLP-1R agonist activity EC50” value is 1.53 nM.
On the same count and under the same terms, the result for B5 reads 1.75 nM; that for B6, 1.32 nM; that for B7, 2.41 nM.
Take B8: the “GLP-1R agonist activity EC50” value was found to be 1.81 nM.
In the case of B9, the “GLP-1R agonist activity EC50” value stood at 1.87 nM.
Regarding B10, the “GLP-1R agonist activity EC50” value was determined as 2.54 nM.
With B11, the “GLP-1R agonist activity EC50” value was found to be 1.26 nM.
Still for that read-out and setting: the result for B12 reads 1.32 nM; that for B13, 1.77 nM.

Another test addresses Glucagon receptor. The test is described as follows: cell-based or functional assay. This is another data set of the same source.
As to B14, the “GCGR agonist activity EC50” value was determined as 1.45 nM.
Take B15: the “GCGR agonist activity EC50” value came to 1.51 nM.
On the same count and under the same terms, as for B16, the figure is 1.67 nM.
On the same count and under the same terms, as for B17, the figure is 1.36 nM; as for B18, 1.38 nM; as for B19, 1.23 nM.
Still for that read-out and setting: the result for B20 reads 1.57 nM; that for B21, 1.5 nM.
As for B22, the “GCGR agonist activity EC50” value is 1.34 nM.
Consider B23, for which the “GCGR agonist activity EC50” value is 1.33 nM.

For another test, the target named is T1, human GLP-1 receptor. The test is described as follows: cell-based or functional assay. This is another data set of the same source.
For the molecule B14, the “GLP-1R agonist activity EC50” value was 1.54 nM and the “GLP-1R agonist activity ratio (after against before insertion of Cex; reference CG283L13F8)” value came out at 215 fold.
Take B15: the “GLP-1R agonist activity EC50” value amounted to 1.68 nM and the “GLP-1R agonist activity ratio (after against before insertion of Cex; reference C308L13F8)” value worked out at 244 fold.
With B16, the “GLP-1R agonist activity EC50” value was 1.74 nM and the “GLP-1R agonist activity ratio (after against before insertion of Cex; reference C303L13F8)” value was determined as 224 fold.
On to B17, for which the “GLP-1R agonist activity EC50” value came out at 1.59 nM and the “GLP-1R agonist activity ratio (after against before insertion of Cex; reference C224L13F8)” value worked out at 211 fold.
Take B18: the “GLP-1R agonist activity EC50” value worked out at 2.11 nM and the “GLP-1R agonist activity ratio (after against before insertion of Cex; reference CG303L13F8)” value was found to be 214 fold.
For B19, the “GLP-1R agonist activity EC50” value was determined as 1.69 nM and the “GLP-1R agonist activity ratio (after against before insertion of Cex; reference CG267L13F8)” value came to 214 fold.
Take B20: the “GLP-1R agonist activity EC50” value was determined as 1.81 nM and the “GLP-1R agonist activity ratio (after against before insertion of Cex; reference C319L13F8)” value worked out at 209 fold.
On to B21, for which the “GLP-1R agonist activity EC50” value came out at 1.48 nM and the “GLP-1R agonist activity ratio (after against before insertion of Cex; reference CG308L13F8)” value worked out at 237 fold.
As for B22, the “GLP-1R agonist activity EC50” value was found to be 1.94 nM and the “GLP-1R agonist activity ratio (after against before insertion of Cex; reference C214L13F8)” value amounted to 226 fold.
Take B23: the “GLP-1R agonist activity EC50” value was determined as 1.75 nM and the “GLP-1R agonist activity ratio (after against before insertion of Cex; reference CG214L13F8)” value is 206 fold.

The record behind these values is patent US20210070829A1 (ZHEJIANG DOER BIOLOGICS, published 2021).
